Over roughly 33,000 sequences, “E-score (-0.5 to 0.5)” has its median near -0.021; the highest 2% begin near 0.32. The list shows a part of the results.
The sequences below were run against T1, Zap1 (UniProt P47043) (assay: PBM E-score (8-mer binding enrichment) (E-score (-0.5 to 0.5)); higher = stronger / more preferred TF binding; most listed sequences are background and not binding sites). Settings: protein concentration: 200 nM; construct: GST-full length.
T1 sequence: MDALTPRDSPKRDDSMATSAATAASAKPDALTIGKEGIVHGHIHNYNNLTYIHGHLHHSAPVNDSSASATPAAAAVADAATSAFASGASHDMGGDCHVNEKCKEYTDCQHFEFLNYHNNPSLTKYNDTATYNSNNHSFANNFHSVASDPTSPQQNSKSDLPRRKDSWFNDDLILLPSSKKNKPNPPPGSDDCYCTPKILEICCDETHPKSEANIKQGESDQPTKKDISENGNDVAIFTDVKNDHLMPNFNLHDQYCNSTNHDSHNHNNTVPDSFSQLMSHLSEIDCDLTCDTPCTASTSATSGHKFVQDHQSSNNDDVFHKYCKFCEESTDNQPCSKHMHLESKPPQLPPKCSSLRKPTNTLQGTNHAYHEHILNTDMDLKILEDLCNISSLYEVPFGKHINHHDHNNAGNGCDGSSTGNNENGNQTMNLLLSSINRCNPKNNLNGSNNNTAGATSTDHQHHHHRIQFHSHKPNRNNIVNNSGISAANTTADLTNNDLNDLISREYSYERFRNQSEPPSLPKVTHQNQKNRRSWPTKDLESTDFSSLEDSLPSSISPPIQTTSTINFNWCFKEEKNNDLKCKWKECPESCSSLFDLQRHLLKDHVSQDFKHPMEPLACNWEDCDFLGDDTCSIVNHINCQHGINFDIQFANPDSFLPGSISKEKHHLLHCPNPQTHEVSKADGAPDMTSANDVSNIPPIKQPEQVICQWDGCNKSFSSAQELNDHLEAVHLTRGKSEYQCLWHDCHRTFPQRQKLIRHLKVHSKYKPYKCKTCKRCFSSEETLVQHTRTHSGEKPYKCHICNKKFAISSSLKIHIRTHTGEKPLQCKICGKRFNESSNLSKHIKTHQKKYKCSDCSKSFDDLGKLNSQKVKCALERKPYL
In short: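 Bound GST-tagged yeast transcription factors, applied at about 100-200 nM to double-stranded universal all-10-mer Agilent arrays, were detected with fluorescent anti-GST. Scans were normalised with masliner. A modified Wilcoxon-Mann-Whitney statistic, the E-score, was assigned to each ungapped eight-base word pooled with its reverse complement by the Universal PBM Analysis Suite.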

Sequence	PBM E-score
CCCAGCGC	-0.235
AAGTAATT	0.0548
AGGCCGTG	0.134
ATTATTTC	0.198
CCTCCCAG	-0.291
CACAACGC	-0.139
AGTAGCTA	0.0791
CTATCCAG	-0.0302
GAATGCGA	-0.152
AGCATACA	-0.0109
GTTTCGGA	0.182
GGTAGCAC	-0.00484
CGGTGGAG	-0.243
CTCAAGCC	-0.13
CGGCCGAA	-0.0534
GAGAGAGC	-0.261
AGCCTTAT	-0.0493
GACGGACA	-0.162
GGGATCAA	0.145
TACTGTAA	0.254
CGCCATGA	-0.00203
ATTGTCTC	-0.243
TGAAACCA	0.209
CTATAGTA	0.115
AGTAGGCG	-0.187

Sequence	PBM E-score
CAACTCGA	-0.0502
ACGACTGA	-0.0338
ATTTCAAA	0.162
CACGCGCA	-0.0768
AATAGCTG	-0.109
CCTCCGCC	-0.0775
GGTGGGAA	0.0321
ATCCTTGA	0.196
CGAGATGC	-0.243
GGGACCCA	0.198
ACCCTCAA	0.361
ATATCAGG	-0.091
AATTTCCG	0.115
TAGAAAGA	-0.177
GACGCAGC	-0.185
AATAGGAG	-0.212
ACTAGGAG	-0.203
AGAAGCGC	-0.0974
AATTGAAG	-0.0701
ACTCTTAC	0.226
AAGTGTAG	-0.0478
CGGTCCGA	-0.127
ACAAGCAC	-0.209
GTGTACGA	-0.111
AAAAAGTG	0.151

Sequence	PBM E-score
CCGGTCGC	-0.093
CCTGAAAA	-0.0503
ATAGTGAT	-0.0291
GCCCAGAC	-0.309
AATAAGTA	0.0977
AGTCTTGC	-0.245
ATCTTTCA	0.185
AGTCCAAC	-0.159
GGGGTTCA	0.0745
GCGCCCTA	-0.151
AGATTTGA	-0.0456
AAGCCCTT	-0.053
CATACCCA	0.221
AGGGGACG	-0.0872
CTGGTTCA	-0.118
CGACACTA	0.185
AGAACAAC	-0.0202
CATTTATA	0.196
GCCGTGGA	-0.193
ATAACAGA	0.0914
AACAAAAC	0.136
ACCGACTG	-0.204
CACCGGTC	-0.112
AAATCCTT	-0.162
AGGGTTGA	0.271

Sequence	PBM E-score
CAGTAGGA	-0.247
TACCGGCA	-0.0706
AGACCGGG	0.0501
CTCGAATC	-0.00443
CCCGGGCA	-0.0642
CATGTCCG	-0.0863
CTACCTCA	0.251
AGCGCTAG	-0.225
ACGCAAGG	0.107
CACACGCG	-0.0613
CCTTCAGA	0.118
CCGGACGA	-0.123
AATCTTCC	-0.26
GAGATTCC	-0.0295
AGAAGTCT	-0.257
ATGTTAGG	-0.0226
AGAACACC	0.0413
CACAAACA	0.159
CTACATTA	-0.0456
ATCTAATG	-0.0284
CCATTAGA	-0.0362
ACACAAGA	0.119
ATTACGAC	0.0724
GAGTCCCA	-0.119
AAACTTAA	0.174

Sequence	PBM E-score
CCCGTTCC	-0.079
AGTTAGGG	0.102
GAGTGCGA	-0.1
CAACATAC	0.111
CCCAACGC	0.0793
ACTTCACA	-0.0829
CTTAAGCC	-0.0415
ACAAGAAT	-0.106
CAGAGCAG	-0.13
ACGGCCCG	-0.163
AATTGTAC	0.0773
ATGCGTTG	-0.00451
ACTCTCTC	-0.0978
GACTTAAA	-0.0473
AGTATACA	-0.0486
ACTGTTTG	0.0466
CTGGGAAC	0.0666
ACTTTGGA	0.121
GGTTTAAC	0.306
GCATCCAC	-0.0702
CGCTGAGA	-0.182
TGCGTACA	-0.141
TACAACAA	0.276
ACTGTCCG	0.0425
GCCAGAAA	0.0793

Sequence	PBM E-score
CTGTGGTA	0.0465
AACCTTAC	0.318
ATTGATAG	0.118
ACACTTCT	-0.0698
AGGGCGGC	-0.313
CAGCAGTC	-0.0852
CCATATAC	0.0328
ATATAACA	0.176
CTATGAAA	-0.0314
GACACCTA	-0.0196
GTTCATAA	0.0881
GTCTGTTA	-0.00667
AATCTACC	0.0376
ATCGAGAC	-0.0844
ATCGTGCA	0.0447
AGCCATAT	-0.114
CTGGACTA	0.0556
CAGGTTCA	-0.0984
CCAAGGAG	-0.166
GCGATCTA	-0.15
CGTGTGAA	-0.103
TCCATAAA	0.061
CGATCCTC	-0.25
CCCTATAA	-0.176
ACGTACTC	-0.181

Sequence	PBM E-score
GTCTCCAC	-0.11
CTCTGGTC	-0.0147
AAGGCAGA	-0.215
CAGCGATA	0.0366
GATCCAGA	0.021
AGATAATC	-0.0271
CCACGCCG	-0.032
AATGGTTA	0.413
AAGACTAT	-0.0329
AAGATTCA	0.0114
GACACAGA	-0.043
AAGGGACT	0.0226
CAGCCTAA	-0.0393
CTCCTCGA	-0.0993
ACGGACAC	-0.00855
CAACACGG	-0.238
CTTCGCGC	0.0973
CCAACTAC	0.0442
CCGCTCAG	0.0951
CCATCGAG	-0.0181
TATTAATA	0.0379
AAGTGGTA	0.0985
